Structures are written as SMILES. Whole data set: some 110,000 compounds, median “z-score” near -0.1, cut for the highest 2% near 2. The list shows a part of the results. Active and inactive are the calls of the source.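 How the source made its calls: active means z-score in the third read window above 3 or below -3; inactive means the rest.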

In the experiment the target is Metabotropic glutamate receptor 8 (Rattus norvegicus) (UniProt P70579). Nature of the experiment: rat mGluR8 modulators via GIRK flux, primary screen, cell-based, thallium flux, HTS (AID 488969). As to conditions: HEK293 rat mGluR8, GIRK (G protein-gated inwardly rectifying potassium channel) thallium flux, FluoZin2; at 10 µM; stronger effect = higher value; submaximal glutamate (EC20) added with thallium.
UniProt P70579, sequence (P70579 whole entry, looked up): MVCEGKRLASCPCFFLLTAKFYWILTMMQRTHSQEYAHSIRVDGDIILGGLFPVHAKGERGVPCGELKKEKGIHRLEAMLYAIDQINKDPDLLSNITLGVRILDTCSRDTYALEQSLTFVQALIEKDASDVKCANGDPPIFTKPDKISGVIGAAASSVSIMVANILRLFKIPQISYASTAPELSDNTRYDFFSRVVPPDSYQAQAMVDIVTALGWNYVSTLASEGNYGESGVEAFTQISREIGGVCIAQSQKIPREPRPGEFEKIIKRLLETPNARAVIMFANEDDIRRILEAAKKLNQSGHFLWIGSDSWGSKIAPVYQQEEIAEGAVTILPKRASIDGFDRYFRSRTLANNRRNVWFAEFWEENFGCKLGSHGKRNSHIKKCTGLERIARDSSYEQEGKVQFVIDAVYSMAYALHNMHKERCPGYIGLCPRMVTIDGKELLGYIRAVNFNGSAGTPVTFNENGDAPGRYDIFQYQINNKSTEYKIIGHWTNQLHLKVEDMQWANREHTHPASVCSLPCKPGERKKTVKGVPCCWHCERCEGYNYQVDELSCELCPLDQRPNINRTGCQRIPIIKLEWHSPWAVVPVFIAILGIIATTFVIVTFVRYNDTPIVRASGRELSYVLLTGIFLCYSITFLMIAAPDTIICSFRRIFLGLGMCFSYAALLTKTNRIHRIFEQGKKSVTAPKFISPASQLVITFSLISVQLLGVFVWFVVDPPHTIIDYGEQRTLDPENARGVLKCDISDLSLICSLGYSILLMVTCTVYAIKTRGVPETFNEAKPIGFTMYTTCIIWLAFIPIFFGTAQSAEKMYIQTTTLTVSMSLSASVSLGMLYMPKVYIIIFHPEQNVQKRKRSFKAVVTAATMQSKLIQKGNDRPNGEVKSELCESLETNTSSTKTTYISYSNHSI
Consider `O=C(OCCN1C(=O)c2ccccc2C1=O)c1cc(S(=O)(=O)N2CCOCC2)ccc1Cl`, for which the z-score was -0.0573. For `Cc1ccc(C)c(NC(=O)CN2C(=O)CNC2=O)c1`, the z-score was -0.231. `CCOC(=O)c1nn(-c2cccc(Cl)c2)c2nc(CC(C)C)c(C#N)c(=O)n12` had a z-score of -0.17. As for `S=C(Nc1ccc2c(c1)OCO2)NC1CCN(Cc2ccccc2)CC1`, the figure is 0.66; as for `O=C(Cn1c(=O)c(=O)n(Cc2ccccc2)c2ccc(Cl)cc21)Nc1cccc(F)c1`, -0.38.

Turning to `O=C1CC(c2ccccc2)CC(O)=C1C=NCCCO` (stereo not given), the z-score was determined as 0.0641. As for `C=CCNC(=O)c1ccccc1NS(=O)(=O)c1ccccc1`, the figure is 0.059. As for `Cc1ccc(C(=O)NCc2ccccn2)c(Cl)c1`, the figure is -0.0826; as for `COn1c(-n2nc(C)cc2C)nc2ccccc2c1=O`, 0.141. Under `CCOC(=O)C(NCc1ccc2c(c1)OCO2)(NC(=O)c1ccccc1)C(F)(F)F` (stereo not given) stands -0.325; under `COC(=O)c1nnn(-c2nonc2N)c1CSCCO`, 0.0675.

Compound `COc1cc(/C=N/NC(=O)/C(=C\c2ccc([N+](=O)[O-])cc2)NC(=O)c2ccccc2)cc(OC)c1O` returned a z-score of 0.215. Under `Cc1ccc(OCC(=O)N/N=C\c2ccco2)c(C)c1` stands -0.0482; under `CCCn1cc(NC(=O)c2cc3n(n2)C(C(F)(F)F)CC(c2ccccc2)N3)cn1` (stereo not given), 0.179.

In the case of `COc1ccc(CN(C(=O)c2ccccc2OC)C2CCS(=O)(=O)C2)cc1` (stereo not given), the z-score was -0.139. For the compound `c1ccc2[nH]c(CN3CCOCC3)nc2c1`, the z-score is -0.119. Under `CCC(c1nnnn1C(C)(C)C)N(Cc1cc2cccc(C)c2n2nnnc12)C1CCCC1` (stereo not given) stands 0.0383; under `Cc1nc2c(C)cccc2cc1C(=O)N/N=C/c1ccc(O)cc1`, -0.281. As for `NC(=O)C(c1ccccc1)C1CCCC1` (stereo not given), the figure is 0.327; as for `COc1nc(N/N=C/c2ccc(-c3ccccc3[N+](=O)[O-])o2)nc(N2CCOCC2)n1`, -0.309; as for `CCc1cc2c(NCCC(=O)O)nc(C)nc2s1`, -0.427. Under `CCCN1C(=O)/C(=C\C=C2/C=CN(CC)c3ccccc32)SC1=S` stands 1.5; under `Cn1c(=O)c2c(nc(Oc3ccc(-c4ccccc4)cc3)n2C)n(C)c1=O`, 0.475; under `Cc1ccc(NC(=O)Nc2nnc(CSCCOc3ccc(Cl)cc3)s2)cc1`, 0.0698. The compound `Cc1ccc(F)cc1NC(=O)C1CCCN(c2ncccn2)C1` (stereo not given) registered a z-score of -0.193. Under `CCOC(=O)Cc1nn(C)c(=O)c2ccccc12` stands 0.371; under `COC(=O)[C@H](C)NC(=O)NCc1ccccc1F`, 0.611; under `Cc1cccn2c(=O)c3cc(C#N)c(=N)n(CC4CCCO4)c3nc12` (stereo not given), -0.508.

For `Cc1ccc(C(=O)C[n+]2cc(Br)cc(Br)c2)cc1[N+](=O)[O-]`, the z-score was -0.127. The compound `N#C/C(=C\c1ccco1)C(=O)NCC1CCCO1` (stereo not given) had a z-score of -0.0138. Under `CCOC(=O)c1c(CC(C)C)csc1NC(=O)C(C)C` stands -0.224; under `Cc1ccc2c(c1)NC(=O)C(CC(=O)NCCCN1CCN(c3cc(C)ccc3C)CC1)O2` (stereo not given), -0.26; under `O=C(NC1(C(F)(F)F)NC(=O)N(c2ccc(F)cc2)C1=O)c1ccncc1` (stereo not given), 0.0159. Under `CCOC(=O)CNC(=O)CSc1ncnc2c1nnn2-c1ccc(F)cc1` stands -0.262; under `Cc1cc(C)n(-c2nc(NCC(C)O)c3c4c(sc3n2)COC(C)(C)C4)n1` (stereo not given), -0.604; under `O=C(NC1CC2CCC(C1)N2C(=O)NCc1ccccc1)C1CC1` (stereo not given), 0.299. Under `COc1ccccc1N1CCN(S(=O)(=O)c2cccc(F)c2)CC1` stands -0.494; under `O=C(CN1CCN(CCN2C(=O)c3cccc4cccc(c34)C2=O)CC1)c1ccc(F)cc1`, -0.49. In turn, `COC(=O)C(NC(=O)c1ccccc1)=C1CCCCC1` gave a z-score of -0.971. Turning to `Cc1ccccc1N=C1N=C(N)c2ccccc21`, the z-score was -0.356.

In the case of `COc1ccc(Cc2nnc(NC(=O)CSc3ccccc3)s2)cc1OC`, the z-score is 0.209. `CCCN(CCC)C(=O)CC(c1ccccc1)c1cc(Br)ccc1O` (stereo not given) had a z-score of -0.0728.

Consider `CN(C)/C=N/c1sccc1C(N)=O`, for which the z-score was -0.0165.

Take `COCCNC(=O)CCCC(=O)NCCOC`: the z-score was -0.0363. Under `CC1(C(=O)O)CCC(C(=O)Nc2ccccc2O)C1(C)C` (stereo not given) stands -0.0754; under `O=C(C1CCC(=O)N1Cc1ccccc1Cl)N1CCN(c2cccc(Cl)c2)CC1` (stereo not given), -0.174. Under `O=C1CC(c2ccccc2)CC(O)=C1C=NCc1ccco1` (stereo not given) stands 0.412; under `COc1ccc(NC(=O)COC(=O)C2CCCCC2)c([N+](=O)[O-])c1`, 0.159.

In turn, `Cc1ccc(C)c(S(=O)(=O)N/N=C/c2cccnc2)c1` came in with a z-score of 0.433. As for `O=C1C(c2ccncc2)=C(O)c2ccccc21`, the figure is 0.157; as for `O=C(c1cc(C2CC2)on1)N1CCN(c2ccc(F)cc2)CC1`, 1.09; as for `COc1ccc(C/C(C)=N/NC(=S)Nc2ccccc2)cc1`, active: 5.19. As for `Cc1ccc(NC(=O)Cc2c(Cl)cccc2Cl)cc1S(=O)(=O)N(C)C`, the figure is 1; as for `COC(=O)COc1ccc(S(=O)(=O)NCc2ccncc2)cc1`, 0.037. As for `CC(Sc1nnc2ccccn12)C(=O)N1CCc2ccccc2C1` (stereo not given), the figure is -0.0936; as for `NS(=O)(=O)c1ccc(NS(=O)(=O)c2ccc(NC(=O)c3ccc(-c4ccccc4)cc3)cc2)cc1`, -0.214. `O=[N+]([O-])c1ccc(O)c(NC(=S)Nc2ccccc2)c1` returned a z-score of -0.478.

On to `Cn1cc(C(=O)N2CCc3ccccc32)cn1`, for which the z-score turned out to be 0.708.

`CCCOC(=O)/C(C)=N\NC(=O)c1ccco1` gave a z-score of -0.526. As for `CCCC(O)(CCC)C(=O)NN(C(=O)CCl)c1ccccc1`, the figure is -0.215; as for `CC(=O)c1cc(C#N)c(Oc2ccc(F)cc2)nc1C`, -0.0776. Under `Cc1ccc(CNC(=O)CCC(=O)c2cccs2)cc1` stands -0.0672; under `CC(Sc1nncn1C)C(=O)Nc1nnc(-c2ccccc2)s1` (stereo not given), 0.184. Under `COCCCNC(=O)c1cccc(OC)c1OC` stands 0.544; under `N/C(Cn1nnc(-c2ccccc2)n1)=N\O`, -0.0839; under `CCN(CC)S(=O)(=O)c1ccc2oc(C(=O)N3CCOCC3)c(C)c2c1`, 0.216. Turning to `Cc1cccc(-c2nnc(SCCOc3ccc4c(C)cc(=O)oc4c3)o2)c1`, the z-score was -0.0343.

In turn, `CC(/C=C/c1ccccc1)=N\NC(=O)Cn1nc(C)cc1C` registered a z-score of 0.481. As for `CCCCC(=O)NC1(C(F)(F)F)C(=O)Nc2c1c(=O)[nH]c(=O)n2Cc1ccco1` (stereo not given), the figure is 0.27; as for `O=[N+]([O-])c1cc(/C=N/OCc2c(Cl)cccc2Cl)ccc1N1CCOCC1`, 0.476. The compound `CCCCOc1ccc(C2CC(=O)NC2=O)cc1` (stereo not given) registered a z-score of 0.162. As for `COc1cc(/C=C(\C#N)C(=O)Nc2ccc(SC(F)F)cc2)cc(OC)c1OC`, the figure is -0.384; as for `COc1ccc(N2CCN(S(=O)(=O)Cc3ccccc3)CC2)cc1`, 0.217; as for `O=S(=O)(Cc1ccccc1)N1CCN(C/C=C/c2ccccc2)CC1`, 0.335. Under `CC(C)(C)C(=O)NC(=S)Nc1ccccc1F` stands 0.291; under `CSC(=NCc1ccc(F)cc1)NS(=O)(=O)c1cccs1`, -0.639; under `CCOC(=O)c1ccc(CNC(=O)C2CCCCC2C(=O)OCC(F)(F)F)o1` (stereo not given), -0.244. As for `O=C(N/N=C\c1cc(Br)c(Br)o1)c1cncc(Br)c1`, the figure is active: 9.73; as for `O=C(Nc1ccc2oc(-c3ccc4ccccc4c3)nc2c1)c1ccc2c(c1)OCCO2`, 0.784; as for `Cc1cc(C)cc(OC(=O)N2CCOCC2)c1`, 0.211. `COc1cccc(-n2c(SCc3c(C)noc3C)nnc2-c2cccc(S(=O)(=O)N(C)C)c2)c1`: the z-score is -0.0855. Under `Cc1noc(C)c1S(=O)(=O)N1CCC(C(=O)Nc2ccccn2)CC1` stands 0.333; under `CCS(=O)(=O)N1CCC(C(=O)NCc2ccc(F)cc2Cl)CC1`, -0.101; under `Nc1nc(-c2ccccc2)nn1C(=O)Cc1ccccc1`, -0.127. Under `O=C(c1cncc(Br)c1)N1CCc2ccccc2C1` stands 0.292. In turn, `Cc1ccc(NC(=O)Cn2nnc(-c3ccccc3NC(=O)c3cccs3)n2)cc1` came in with a z-score of -0.57. As for `CCc1nc(C#N)c(N2CCOCC2)o1`, the figure is -0.283; as for `C(=N\Nc1ncnc2sc3c(c12)CCC3)/c1cccs1`, -0.382.

Take `O=c1cc2[nH]c3ccccc3c(=O)n2nc1-c1ccccc1`: the z-score was -0.202.

For `N#Cc1nc(-c2ccco2)oc1NCCCn1ccnc1`, the z-score was determined as 1.15. As for `O=C(CSCc1ccccc1)Nc1ccc(F)c(F)c1`, the figure is 0.349; as for `Fc1ccc(-n2c(-c3cccs3)nc3nc4ccccc4nc32)cc1`, -0.4; as for `O=C(NCCCN1CCCC1=O)c1cncc(Br)c1`, -0.00979. `Cn1nc(C(F)(F)F)c(C(=O)Nc2ccc(C(F)(F)F)cc2)c1Cl` gave a z-score of 0.147. Under `COc1ccc(/C=C2\C(=O)NCC(=O)N2Cc2ccccc2)cc1` stands -0.0604; under `O=C(CSc1nnnn1-c1ccccc1Cl)Nc1ccc2c(c1)OCCO2`, 0.438. For the compound `CCN(CC)S(=O)(=O)c1ccc(N=NC2=C(O)CCCC2=O)cc1`, the z-score was -0.199. As for `CCOCC(O)CS(=O)Cc1ccccc1` (stereo not given), the figure is 0.448. As for `Cn1c(=NC(=O)C2CC2)sc2cc(F)cc(F)c21`, the figure is -0.108; as for `O=c1oc2ccccc2cc1-c1csc(Cc2nc(-c3ccc(Br)cc3)cs2)n1`, 1.17.

The compound `CCC(=O)c1ccc(CCCCCC(=O)O)s1` showed a z-score of -0.194. Under `Cc1ccc(/C=C/C(=O)C2C(=O)c3ccccc3C2=O)cc1` stands 0.871; under `COc1ccc(/C=N/Nc2nc(C)c([N+](=O)[O-])c(N(C)c3ccccc3)n2)cc1OC`, -0.369; under `COc1ccccc1NC(=S)NC(=O)CCCOc1ccc(Cl)cc1Cl`, -0.0968. Under `Cc1ccc(/C=N/NC(=O)c2cccs2)cc1[N+](=O)[O-]` stands -0.152; under `CCn1c(SCc2cccc(C)c2)nnc1-c1ccc(C)cc1`, -0.617.

Turning to `Cc1ccccc1-n1c(SCC(=O)N/N=C/c2c(C)nn(-c3ccccc3)c2C)nc2ccccc2c1=O`, the z-score was -0.599. Under `O=C(CCc1nc(-c2ccccc2F)no1)NC1CCCCCC1` stands -0.464; under `CCOC(=O)C1=C(C)NC(C)=C(C(=O)OCC)C1C(=O)OCC(=O)N1c2ccccc2CC1C` (stereo not given), 2.55. Under `CC(C)OC(=O)CSc1nnc(Cc2ccccc2)n1CC1CCCO1` (stereo not given) stands 0.0484; under `O=C(CP(=O)(c1ccccc1)c1ccccc1)Nn1cnnc1`, 0.808; under `CCOc1ccc(/C=N/OCC(=O)NCc2cccs2)cc1`, -1.71. As for `CCOc1ccc(-n2c(SCC(=O)NC(C)CC)nc3n[nH]c(C)c3c2=N)cc1` (stereo not given), the figure is -0.45; as for `O=C(COc1ncnc2c(Cl)cc(Cl)cc12)N1CCCCC1`, -0.979. For the compound `O=C(Nc1sccc1C(=O)N1CCOCC1)c1cccnc1`, the z-score came out at 0.24.

For the origin of these results see PubChem BioAssay AID488969 (Vanderbilt High Throughput Screening Facility, 2010).
